First the molecules themselves.
T1: UNK ZnF1-3 (human, UniProt Q9C0B0 31-174)
T1 sequence: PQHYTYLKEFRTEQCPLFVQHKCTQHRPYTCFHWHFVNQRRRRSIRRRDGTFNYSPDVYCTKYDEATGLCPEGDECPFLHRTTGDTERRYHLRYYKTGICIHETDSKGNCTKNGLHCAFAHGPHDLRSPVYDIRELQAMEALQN

B1: chr15:103022988:103022989:-_ENSMUSG00000009575_ENSMUST00000118152|mus_hu|FALSE|FALSE (ssRNA)
RNA: GGGAGUUCUACAGUCCGACGAUCGGAGUGGUAAGCAAUGACAUAAAUCAAAACCAUUGAGGGUUGCUUUGAUCCUGAGACAGUCUGAGUCUGCUUCAAACCCAUGGGGAAAGGAACUUUAAUCCCCAACCUGCAGAGAGAAAUCAACAGAGGAUUGAGCAUCA
B2: chr11:29607870:29607871:+_ENSMUSG00000020458_ENSMUST00000102843|mus_mus|FALSE|FALSE (ssRNA)
RNA: GGGAGUUCUACAGUCCGACGAUCGAACUCUGGACUUGGCUCAGUGGAGAGCUUUGUUUCUUUAAUUAAAUCACAUGCAAUGGAUAUAUAAGGAGCUUCUGCUUCCUGAGCAGCUGCAUUAAAACUUUCAGGCUCUUUAAUUUCCAACAGAGGAUUGAGCAUCA
B3: chr15:11317090:11317091:-_ENSMUSG00000022241_ENSMUST00000022849|mus_hu|FALSE|FALSE (ssRNA)
RNA: GGGAGUUCUACAGUCCGACGAUCUUCUGUGAGGAUAGCAAUCAUUCUUUCCACUGAUCCCAAGAUGGCUCGAUGAACAAUCACUGGCCUUUUCUUAUCAUCACCAUCAUGGCUUACAUAAGUAAGAUUAAAUCUGAUGGGCAACAACAGAGGAUUGAGCAUCA
B4: chr15:68825492:68825493:+_ENSMUSG00000022332_ENSMUST00000022954|mus_mus|FALSE|FALSE (ssRNA)
RNA: GGGAGUUCUACAGUCCGACGAUCUAUCACCACGUCAAUGUACUUCUCUUCCUCCUUGCCUUCUCCCUUUUGAAACUUUUCUAUUUCUCGGUUCACCAAGCGCAGGGCGUGCGUGAAGGAGGGGUCCAGAGAGUCCUUCUCCGCCAACAGAGGAUUGAGCAUCA
B5: chr2:55199926:55199927:-_ENSG00000115310_ENST00000317610|hu_hu|FALSE|FALSE (ssRNA)
RNA: GGGAGUUCUACAGUCCGACGAUCCAUUUCAGAAAAUCUGCAUCAAUCUACACGGACCAUACACAGUGCACAAACUGAAAAGGGCUUUUUUUUUUUUUUUUCUAGCUCCACCAUCUCUGCAACUUGCCAAGAUGCGGCAAGACUCAACAGAGGAUUGAGCAUCA
B6: chr5:64942916:64942917:+_ENSG00000113597_ENST00000231526|hu_hu|motif|central (ssRNA)
RNA: GGGAGUUCUACAGUCCGACGAUCAGCAUUGGAGGCUGAAAGAUUUAAACGCUGAGAACUUGUCUGAAGAUCAGCUUUUACGGAUAUGUCUUUUACAACUUGAUUGCUAUCAUUAUGAACGCUGAUAUAACUGGAAAAGGUCUCCAACAGAGGAUUGAGCAUCA
B7: chr1:174973770:174973771:+_ENSG00000116161_ENST00000406752|hu_hu|motif|central (ssRNA)
RNA: GGGAGUUCUACAGUCCGACGAUCGAUUUCUGUCUCAAUCUUGGAUUUUUCAGCUGUAAGGGCAUCACGUACUCUUUUCCGGGUAGCCUUUUCCAGCAACACCUUUACCUCUUCUAGAUCUUUCUGUAGCUCUUCUGAAGCCAUCAACAGAGGAUUGAGCAUCA
B8: chr15:63447868:63447869:-_ENSG00000185088_ENST00000411926|hu_hu|motif|central (ssRNA)
RNA: GGGAGUUCUACAGUCCGACGAUCCCCUUCUGUGAGUCUGGCCUUUCCUCCUGUAGGCUGGCACAACACUGUUGAACAACCGGCACAAAGAACCACUGUCUGAGCAUGGCUGAAAACCGUGGUGAUCUUGUAGCAACCUGGACACAACAGAGGAUUGAGCAUCA
B9: chr4:71691144:71691145:-_ENSG00000132463_ENST00000545193|hu_mus|FALSE|FALSE (ssRNA)
RNA: GGGAGUUCUACAGUCCGACGAUCGGCCUUCCCACUGGAGCUGUAUUCCAUGGUGAUUCUCACAGGCUUCAGGGGAGCAAAGAAAUUUAUAAUGUCUUGGGCAUUGGCUUGGAAAGGCAAUCCUCUCAUGUGGACAAAAUGCAGCAACAGAGGAUUGAGCAUCA
B10: chr13:90237973:90237974:+_ENSMUSG00000012422_ENSMUST00000161568|mus_mus|FALSE|FALSE (ssRNA)
RNA: GGGAGUUCUACAGUCCGACGAUCAAGCACAUGUACAUAUAAGCAGCAAGAUUACAGUCAACAGACUCUGAAAAUUGAAAAUGGCAGACAUAGUGAGGCCGGUGCUGGUCCAGCCACAUCACCCUUCCGGGCCGGGGCGGAAGACAACAGAGGAUUGAGCAUCA
B11: 86681155_86682711_2440_CDS_ENSG00000145715_ENST00000456692|human|control|control (ssRNA)
RNA: GGGAGUUCUACAGUCCGACGAUCAUCUAAAAACAUGAUCAUACGAUGUUUGUUGCUUUUGAUGAAUGGAUUGACACCUUCCAUGUAGGGCUCCUUAGCUCCAAAUUCCACAAGAUUUGCUAAGUUCUGCACAGAUUUAGCCACCAACAGAGGAUUGAGCAUCA
B12: chr17:65740002:65740003:+_ENSG00000130935_ENST00000581375|hu_hu|hu_hu_hu_mus_False|48_88 (ssRNA)
RNA: GGGAGUUCUACAGUCCGACGAUCAACAAAUCUUUCUUCCCUGGACGCAAGAGUUCAUUCAUAUUAAAAAAAAUAUAUAUCCAUCAAGGAGAAUUGAGUGGCCACACCUUUACUCCCAGCACUUUGGGAGGUGGAUCUCUGAGUCAACAGAGGAUUGAGCAUCA
B13: chr12:49579495:49579496:-_ENSG00000167552_ENST00000550767|hu_hu|FALSE|FALSE (ssRNA)
RNA: GGGAGUUCUACAGUCCGACGAUCGGCUCCAUCAAAUCUCAGGGAAGCAGUGAUGGAGGACACAAUUUGACCUAUUAACCUAUUCAGGUUAGUAUAGGUUGGACGCUCAAUAUCGAGGUUUCUACGACAGAUGUCAUAGAUGGCCAACAGAGGAUUGAGCAUCA
B14: chr17:65740002:65740003:+_ENSG00000130935_ENST00000581375|hu_hu|hu_hu_hu_mus_False|8_28 (ssRNA)
RNA: GGGAGUUCUACAGUCCGACGAUCAACAAAUCUUUCUUCCCUGGACGAACAGGAAGAUUCAUAUUAAAAAAAAUAUAUAUCCAUCAAGUUAGGUGUGGUGGCCACACAGAGCUCCAGAGCACUUUGGGAAUAUAAUCUCUGAGUCAACAGAGGAUUGAGCAUCA
B15: chr2:5814250:5814251:-_ENSMUSG00000025816_ENSMUST00000102981|mus_hu|mus_mus_mus_hu_True|18_28 (ssRNA)
RNA: GGGAGUUCUACAGUCCGACGAUCUUCCUUUCCGGUUUCUGAAUUUCUGGUAGAACUGCACAGAAUGGUUUGAUAACUUCUAAAAAUUUGAUGCCCAUGGCUGCUGCUCAGCACACCCGGCGGGCACCCGCGGCCUCGGCGCUGCAACAGAGGAUUGAGCAUCA
B16: chr2:48026839:48026840:+_ENSG00000116062_ENST00000540021|hu_hu|hu_hu_hu_mus_False|38_68 (ssRNA)
RNA: GGGAGUUCUACAGUCCGACGAUCAUAGUGAGCCACUAGCGUCCUAAAUCUGGAACAGUGGCGGUCAUCUGAAAACUGGCCGAUGAAAAACUUGCCCAGUGAAGUAUCCACAAAGCAAACACCAUACACACGAGUGUGACCAGACAACAGAGGAUUGAGCAUCA
B17: chr1:213186598:213186599:-_ENSG00000174606_ENST00000366962|hu_mus|FALSE|FALSE (ssRNA)
RNA: GGGAGUUCUACAGUCCGACGAUCAAACUGCGUUCCAGACUCAAACAGAAAAGGUGGUCUACAGUUCAAUGAGAAAUGCCUGCUACUGAAGUAUGGGUAAGGCGCACGGGAGUAAUGUCCUGGCCACCUCAGACAACUGGAAAUCAACAGAGGAUUGAGCAUCA
B18: 91712666_91712786_8636_CDS_ENSG00000127914_ENST00000356239|human|control|control (ssRNA)
RNA: GGGAGUUCUACAGUCCGACGAUCGAUUAUUUCAGUAACUUCUUCUGAGGAACAUUCACUCUGUAAAUUAAUUUGUAUUCCUGCAUUUUUAACAAGAAUUUGUGGAGUCUGAUUGCUGCUACUGAUCUUCAGAGUCCCAUCUGUCAACAGAGGAUUGAGCAUCA
B19: chr11:100452292:100452293:-_ENSMUSG00000014195_ENSMUST00000014339|perfect_dup|FALSE|FALSE (ssRNA)
RNA: GGGAGUUCUACAGUCCGACGAUCAUUUGUUUUUAUGUUGUUGGGAUCUAUCCCCAAGGCUUCUGUGUACAGUUCAUAUGCUAGCUUGUAAUUUCCUUCCUUAAAGGCUUUAUUCCCAUCUUCCUUCUUGGCUUUAAGGGCUUUCAACAGAGGAUUGAGCAUCA
B20: chr16:94664741:94664742:+_ENSMUSG00000040785_ENSMUST00000117648|mus_hu|mus_mus_mus_hu_False|58_68 (ssRNA)
RNA: GGGAGUUCUACAGUCCGACGAUCUGGUACUGAUCUUGGUAGCUGAUAUUCAGGAGAAAGGCUGGCCAAAGGUGUGUAAAUGCUAGUGUACUGGGGCAAACCUGGUAACACGUUUAUGUAUGCUGGCGGUGUCUGGGUGAUAUCCAACAGAGGAUUGAGCAUCA
B21: 89898744_89908832_476_3pUTR_ENSMUSG00000002489_ENSMUST00000163370|mouse|control|control (ssRNA)
RNA: GGGAGUUCUACAGUCCGACGAUCCGCCCCAGGCUGGCAUGCUUUUCUCCAUAAAACUCGUGGUCUACAUUUUGGCUUUCUGCGUUUCCCAUGGUUUUAUGGUCUUCAAAGGCAACAGUGGUGCCCAGCCCAACUGGCCCCAGGCAACAGAGGAUUGAGCAUCA
B22: chr4:6323411:6323412:-_ENSMUSG00000028245_ENSMUST00000029910|mus_hu|motif|central (ssRNA)
RNA: GGGAGUUCUACAGUCCGACGAUCAGAAAAAUAUUUUUAAUGUAGAAAAGAUGAAUAGCUGUAAUGAAAUACAAACCGUUCCGGUACACAGUAAACUUACUAAGAACUGCUAAUCCUUCUCCAGGUUCUUAGAAUCUGGGUACACAACAGAGGAUUGAGCAUCA

Some of the results follow.

This assay concerns the target T1, UNK ZnF1-3. Nature of the assay: nsRBNS (natural sequence RNA bind-n-seq); RBNS binding buffer (assumed for nsRBNS): 25 mM Tris pH 7.5, 150 mM KCl, 3 mM MgCl2, 0.01% Triton X-100, 500 ug/ml BSA, 20 U/ml SUPERase-In, 4 C; UNK is unkempt and MSI1 is Musashi-1; names of the RNAs are library labels; protein concentration not given here; high values mean tight binding.
Regarding B1, the binding signal worked out at 0.782 enrichment R.

With B2, the binding signal is 1.3 enrichment R.

With B3, the binding signal was 1.26 enrichment R.

On to B4, for which the binding signal was 0.954 enrichment R.

B5: the binding signal is 1.44 enrichment R.

Molecule B6 came in with a binding signal of 1.48 enrichment R.

Molecule B7 displayed a binding signal of 0.406 enrichment R.

The molecule B8 registered a binding signal of 1.3 enrichment R.

Regarding B9, the binding signal was determined as 1.29 enrichment R.

B10 returned a binding signal of 1.78 enrichment R.

B11 showed a binding signal of 0.788 enrichment R.

Turning to B12, the binding signal is 1.65 enrichment R.

As to B13, the binding signal worked out at 0.76 enrichment R.

Turning to B14, the binding signal was found to be 1.83 enrichment R.

As for B15, the binding signal was 0.895 enrichment R.

B16: the binding signal was 1.1 enrichment R.

In turn, B17 registered a binding signal of 1.25 enrichment R.

With B18, the binding signal came out at 0.835 enrichment R.

In turn, B19 gave a binding signal of 0.338 enrichment R.

With B20, the binding signal turned out to be 0.969 enrichment R.

Turning to B21, the binding signal turned out to be 0.649 enrichment R.

B22 yielded a binding signal of 1.36 enrichment R.

For the origin of these results see article PMC12136788.
